Results published in the supplement of paper PMC11417369.
The other results are listed elsewhere or left out.

Tested on: PfSIP2 AP2 domain 1 (GST-tagged)
Test: gcPBM binding intensity (ln(normalized median fluorescence intensity)); higher = stronger DNA binding
Outline: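 An Agilent 4 × 180k array carrying primer-extended double-stranded 36-bp intergenic genomic probes and negative controls received GST-tagged P. falciparum DNA-binding domains expressed in E. coli, about 25 μg on average, for 1 h. The binding buffer contained 1× PBS, 1% milk, 0.2 mg/ml BSA, 0.5% salmon testes DNA and 0.03% Triton X-100. Binding intensity is the top Masliner-normalised natural-log median intensity across replicate spots of either probe orientation, read after Alexa488 anti-GST antibody staining and a 488 nm scan.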

| Sequence | gcPBM binding intensity (ln) |
| --- | --- |
| TTATAAATGTATTTATGTACATATAAATATATATAA [XGTACX_site2970] | 7 |
| ATATAAATCAAAAACGCACACATAAATATTTATATA [CACACA_site2442] | 7.31 |
| ATAAAAGAATAAATAAAACACATATATATATATATA [XGTACX_negctrl_site31] | 9.43 |
| TTTTTTTTTTTTTTGGTGCACATAGAAATTCTAAAA [GTGCAC_site9809] | 11.3 |
| CCTATTTATAAATACACACACATATATAAATAAATA [CACACA_site5629] | 7.18 |
| AAAAAACTATTATGTGCATGCACAAGTCAGGTAAAT [TGCATGCA_site791] | 8.71 |
| TATTTATAGATATATACACACATATTTATATTTATA [CACACA_site6441] | 6.83 |
| AAAAAGAAATCCAATACACACCTTCAAAATGGGTAT [CACACA_site4978] | 6.55 |
| CATTAAATATATAAATGTACAAATATATTTTTCAAA [XGTACX_site4429] | 6.98 |
| TTGTTCATATTTTTTATTGTGTTAATATTTATAAAA [GTGCAC_negctrl_site423] | 7.28 |
| TTAATGTAGAGAAAATGTACATTTTATTAAAACAAT [XGTACX_site6376] | 7.13 |
| TTTTAAATATATGTGCTATTATATTAAGAGATGTAA [GTGCAC_negctrl_site560] | 7.15 |
| ATCTATAAATTTCCACGTACATATATATATATATAT [XGTACX_site4502] | 9.19 |
| CCTCTTTTTATTCTCACACACGTTTATATATAAAGT [CACACA_site4992] | 7.68 |
| TTTTTTATTTTTGCGTGTACATAATAATGAATCTTC [XGTACX_site8077] | 7.35 |
| GAAATTTCCCATATTACACACATACTATGATATATA [CACACA_site5987] | 7.12 |
| ATGCGTTAATCTATATATATTATGTATAGATTTTCA [CACACA_negctrl_site1650] | 6.81 |
| AACATATTTATGATGTGTACCTACATAATAGAATTT [XGTACX_site141] | 6.91 |
| TTTTTTAATATATTATTATAAATATTTTTTATGTGT [GTGCAC_negctrl_site712] | 6.85 |

| Sequence | gcPBM binding intensity (ln) |
| --- | --- |
| CATAATGTAAATAAGTGTACACATATATAATACATA [XGTACX_site3108] | 7.57 |
| ATATTTTGATAATATTGTACAAAAACATTAAAATGT [XGTACX_site8361] | 6.99 |
| AACATTATGTTTATTTGTACATATAAATATATGTAA [XGTACX_site7389] | 6.89 |
| TCTTTTATGATATTTACACACAAACGTGAGATAGCT [CACACA_site2312] | 6.87 |
| CTCTACGAATTCATAGTGCAAAGAGCTAATTTTTTC [GTGCAC_site9710] | 7.63 |
| GATCATTCAGTTTTATCACACACAATCAAACATATA [CACACA_site8882] | 7.28 |
| ACAACATATGTTATCACACACATATAAATATAAATA [CACACA_site7038] | 6.87 |
| ATTTTGATGATGTATGCACACATTGAAAATGAGAAA [CACACA_site2916] | 9.12 |
| ATATATATATATATATGTACATATTTGATTTTTCTT [XGTACX_site8171] | 9.44 |
| CACACGCACAGACACACACACACACGGATATAAATA [CACACA_site6301] | 7.71 |
| TTTTTTTTTTTTTTTTGTACATATAAAAATACGTAA [XGTACX_site6003] | 7.1 |
| TCACTACATTTTGGACGTACACAACTTGATATATTG [XGTACX_site4775] | 7.29 |
| ATGATATACTTGAGTGTGCACAAACTATTACTTACA | 9.32 |
| AAATCTTAACTCTATGCACACATAAAAGTATATAAA [CACACA_site8709] | 7.21 |
| ATCGGTAATATTAACACACACATTTATATATATTTA [CACACA_site1084] | 7.2 |
| TTTTGTAGATATTGAAGTACAAAAAAAATGTAAAAG [XGTACX_site5905] | 7.06 |
| TATATATCGCCCTTCACACACACACGGATATAAATA [CACACA_site7221] | 7.49 |
| CGCTCTTATAAATGTTGTACATAAAACTGTTCATTA [XGTACX_site3409] | 7.11 |
| ATAATAAATATATAATGTACATATTATGTTCTTTAT [XGTACX_site8655] | 6.93 |

| Sequence | gcPBM binding intensity (ln) |
| --- | --- |
| ATGAATAATTAATGATGTACTTAAAAAAAAAAATAT [XGTACX_site6346] | 7.1 |
| AAAAAAAAAAAAAAAAAAAAAAAAAAAAAAACATAT [GTGCAC_negctrl_site580] | 9.02 |
| ATATATTATATTGAATGTACATATATATATTATATA [XGTACX_site8445] | 7.33 |
| GTTAATATCTTGAACAGTACTCTAAATATCTACATA [XGTACX_site5358] | 6.81 |
| TAGCCCATATGGAATACACACTGAAAATAAAAAAAG [CACACA_site5799] | 7 |
| TTACAATAAATTATAGTGCAATATTTTATTTAATAT | 8.45 |
| TGCTATAATTTATATACACACAAATATATACACATA [CACACA_site9356] | 7.03 |
| GATAATAATAAACAACCACACACAAAAAAACAAAAA [CACACA_site9074] | 7.09 |
| CAATGTTGTACATACACACACACAAAAAAAAAATAA [CACACA_site2407] | 7.2 |
| TTCAAATTTCCACATACACACCTTGTAGATCTATAT [CACACA_site6270] | 6.91 |
| ATAAAAAAACACACTCGTACACACATATTTTCTTTC [XGTACX_site6565] | 7.13 |
| TTTATATTATTAGAAACACACATTAGATTAAAATTA [CACACA_site3286] | 6.84 |
| TATATATATATGTGCACACCAATTGTATGTAATATA [CACACA_site3889] | 9.51 |
| TATTTAATTACATGAACACACATTATATATTTTTAA [CACACA_site5615] | 6.9 |
| ATATAACACATTAGTTGTACTATTTTTAATTGGTGA [XGTACX_site961] | 6.91 |
| ACTACATAATATTAACGTACATATTATAATACTTGC [XGTACX_site954] | 7.33 |
| TACATAATAACATGTACACACATTCTTCTATAAATG [CACACA_site4061] | 6.97 |
| ACATAATAAAAATGACGTACAATTTTTTTTTTTCAT [XGTACX_site8340] | 7.01 |
| CATTAAAAAGAAAGTTCACACACATATATATGACGG [CACACA_site8836] | 6.93 |
